From ChEMBL document CHEMBL1157539, “Thousands of chemical starting points for antimalarial lead identification” (Nature, 2010)
In all, about 13,000 compounds were measured (“IFI”: median about 4, highest 2% from about 17 on). The list shows a part of the results.

Test: GSK_TCMDC: Inhibition Frequency Index (IFI). The number of non-kinase HTS assays where a compound showed > 50 % inhibition, expressed as a percentage of the number of such assays in which the compound was tested (-0 is zero)
Type: functional

First: Cc1cc(Nc2nc(Nc3cccc(Cl)c3)nc3ccccc23)n[nH]1
Second: Cc1ccc(CNC(=O)[C@H](CC(C)C)Nc2cc(C)nc(Nc3ccccc3)n2)cc1
The IFI of the first is higher: 6.29% for the first, 5% for the second.

Compared with `COc1cc(-c2nnc(SCC(=O)Nc3cc(C)on3)n2C)cc(OC)c1O`, `Cc1cc(C)c2oc(-c3cccc(NC(=O)c4ccc([N+](=O)[O-])o4)c3C)nc2c1` is higher in IFI: 1.41% for the first, 4.38% for the second.

First: O=C(CCCCCNC(=O)c1ccc(O)c(-c2ccc(Cl)c(Cl)c2)c1)NCCN1CCCCC1
Second: O=C(/C=C/c1ccc(Cl)c(Cl)c1)NCCCCCN1CCC(NC(=O)c2cccc(Cl)c2)CC1
The IFI of the first is lower: 0.74% for the first, 2.38% for the second.

Going from `CCOc1c(CNCCCNc2nc3ccccc3[nH]2)cc(I)cc1OC` to `CCOc1ccc2c(=NN=Cc3ccccn3)cc(C)[nH]c2c1`, the IFI falls from 5.76% to 1.41%.

Going from `Cc1noc(C)c1-c1cccc(CNCc2cccc(-c3cccc(-c4nc5ccccc5[nH]4)c3)c2)c1` to `Cc1cccc2nc(-c3ccc(-c4ccc(CNCc5ccccc5)cc4)s3)[nH]c12`, the IFI rises from 3.92% to 9.62%.

First: C#CCOc1ccc(N2C(N)=NC(N)=NC2(C)C)cc1
Second: CCCc1ccc(N2C(N)=NC(N)=NC2(C)C)cc1
The IFI of the first is higher: 2.27% for the first, 1.41% for the second.

Compared with `Cc1ccc(CNC(=O)c2cnc(N3CCN(c4ccncc4)CC3)c(Cl)c2)cc1`, `O=C(NCc1ccc(Cl)cc1)c1ccc(C(=O)NCC2CCCN2CC2CCCCC2)cc1` (stereo unspecified) is lower in IFI: 11.9% for the first, 6.09% for the second.

First: CCCCC(=O)Nc1cc(=O)[nH]c2nc(-c3ccc(Cl)cc3)nn12
Second: Cn1c(NC(=O)C2CCCN(C(=O)c3ccc(O)c(-c4ccc(Cl)c(Cl)c4)c3)C2)nc2ccccc21 (stereo unspecified)
The IFI of the first is lower: 0% for the first, 1.5% for the second.

First: CN(C)Cc1ccc(-c2cc3c(-c4ccc(CN(C)C)cc4)ccnc3[nH]2)cc1
Second: CC(C)CNCc1ccc(-c2cccc(CN(CCN(C)C)C(=O)NCCc3ccccc3)c2)cc1
The IFI of the first is lower: 0% for the first, 7.19% for the second.

First: O=C(O)c1ccc(OCOCOc2ccc(C(=O)O)c(O)c2)cc1O
Second: CCOc1ccc(N(CC)S(=O)(=O)c2cc(Br)cc3c2N(C(=O)C2CC2)CC3)cc1
The IFI of the first is lower: -0% for the first, 1.41% for the second.

Going from `CC(C)Sc1nc2c(c(=O)n1Cc1ccco1)C1(CCCCC1)Cc1ccccc1-2` to `Cc1cc(N2CCCC2)nc(Nc2ccc(NC(=O)c3ccccc3C)cc2)n1`, the IFI rises from -0% to 10.8%.

Going from `Cc1ccc(CNC(=O)[C@H](CC(C)C)Nc2cc(C)nc(NCc3ccccc3C)n2)cc1` to `Cc1cccc2nc(-c3ccc(-c4cccc(CN5CCC(N)C5)c4)s3)[nH]c12` (stereo unspecified), the IFI falls from 7.32% to 5.71%.

First: COc1ccc2nc3cc(Cl)ccc3c(Nc3ccc(O)c(CN4CC5CCC(CC5)C4)c3)c2c1
Second: COc1cccc(C(=O)NCCOc2ccccc2)c1Oc1ccccc1
The IFI of the first is higher: 6.43% for the first, 0.71% for the second.
